First the molecules themselves.
B1: chr10:76910771:76910772:+_ENSG00000156671_ENST00000542569|perfect_dup|motif|central (ssRNA)
RNA: GGGAGUUCUACAGUCCGACGAUCCAUGUCAGGCACUCGCUCAUGGACUAUAACCAUAAUGAAAGAUGUAAAUCCAAAUACGGUAAAAACAUAUAUACAACUCAGUAUAGUCUUCCAGUAUUCUGGGUCCAAUCUUCGAACAGACAACAGAGGAUUGAGCAUCA
B2: chr3:94683992:94683993:+_ENSMUSG00000038902_ENSMUST00000107270|mus_hu|FALSE|FALSE (ssRNA)
RNA: GGGAGUUCUACAGUCCGACGAUCGUUAAUGUUGCCAUCGGGGCCAGGCAGAACACUAGCCACCAGGAAGGAGCGCUGAACUAGCUCUGGACAGUCCCCAAUGACACCUAGCACUUCACCCAGCCAGACAAGCACCAGCUGAAGCAACAGAGGAUUGAGCAUCA
B3: chr5:37680062:37680063:+_ENSMUSG00000029121_ENSMUST00000031004|mus_hu|mus_mus_mus_hu_False|48_98 (ssRNA)
RNA: GGGAGUUCUACAGUCCGACGAUCUUUGGGUGUAGCUGGCACCUCGUACACAGGACCGUCAUACAUGCCCCUGGAAACCCCUUGCAACCCGAAAACCUUAUUCCUGAUUUUGACGCGCUGGUACAGGUGCUCCGGGAACGCCUUCAACAGAGGAUUGAGCAUCA
B4: chr11:108017000:108017001:+_ENSG00000075239_ENST00000265838|hu_hu|motif|central (ssRNA)
RNA: GGGAGUUCUACAGUCCGACGAUCAUUCACUUUUUGGGGAUCAAUCUCCAACAUUUUAAUGUUUGCUAGUACAACCAGACGGAAGGCUUCAUUUACUUCCCACAUUGCAAUAUCUUCUUUUUUCAAUCCCACAUCUUUAAGAACCAACAGAGGAUUGAGCAUCA
B5: chr2:219460011:219460012:+_ENSG00000144580_ENST00000542068|hu_hu|FALSE|FALSE (ssRNA)
RNA: GGGAGUUCUACAGUCCGACGAUCAGCUAAUACUGCUCAAGUACAAUCAUGAAGACAGAUGGAGCUGCUGAAAUUCACACUAAAACAAAGAAAAGGAUCAAGUGGACUGUCACCUUAAUCCCAAGCACCUCCCUUUUAGAGUUACAACAGAGGAUUGAGCAUCA
B6: chr9:69863160:69863161:+_ENSMUSG00000033543_ENSMUST00000118198|mus_hu|FALSE|FALSE (ssRNA)
RNA: GGGAGUUCUACAGUCCGACGAUCCUGUAUGAGCUCAUCUAGGCUCUCCUGAAGACUGUUUCCCAAAGUAGUAUUUCUGUAUAACUGAUAUGCCAUGGCUUAGGAGGAAGAAUUUGUUUUUCUUAUUCAAGCUUGCAUUGAUGUCAACAGAGGAUUGAGCAUCA
B7: 46082053_46083164_2037_CDS_ENSG00000132780_ENST00000537798|human|control|control (ssRNA)
RNA: GGGAGUUCUACAGUCCGACGAUCUUUCCGGGGACUCUCUUCCUCUGGUUUCCUCUUCUUUCUGACAAGGUGGGAAAUAUCAGUCACACAAUUUGAUGAGGAAGCACCGUCUGUUGGCUUUCUACUGGCAAUCAUGGAGACUGACAACAGAGGAUUGAGCAUCA
B8: chr1:39494447:39494448:+_ENSG00000168653_ENST00000372967|hu_mus|hu_hu_hu_mus_False|48_68 (ssRNA)
RNA: GGGAGUUCUACAGUCCGACGAUCGCACCGAGCGGCGUUCUUAUAGGGCUGUUCUGCGCUUAGGAACGUCAACCAUCGGUCCAGGCUAAGGCCGAACUUUUUCUGUAUGUCAAGGAAAGGCAUGGCUCUGCAGUGCCCUUGUCACAACAGAGGAUUGAGCAUCA
B9: chr11:32953859:32953860:+_ENSG00000060749_ENST00000399302|hu_hu|motif|central (ssRNA)
RNA: GGGAGUUCUACAGUCCGACGAUCAUCUCCAAUUGGGCUACAGGAUAAAGAUGACUGCCUGGUUGUUUCCUGAAAAUUAACGGCACUUGAAUUUGAUAGAUAACUAUGUAAGGAGUGCUGUGAACCAGUCAGUUGUGCCUGAAUCAACAGAGGAUUGAGCAUCA
B10: 21755467_21758637_925_3pUTR_ENSMUSG00000047368_ENSMUST00000052556|mouse|control|control (ssRNA)
RNA: GGGAGUUCUACAGUCCGACGAUCUCCCGUGAAUUAUUAAUACUGGAGAGGUUAUCUUAGAGAUUUUGUCAAUGUUUGGGAAUGCAUCAAAACAGUAGGUCUUCUUAGUAUCAGGGAAAGCAACUCGCAUUCCUGAGGUGAGAGCAACAGAGGAUUGAGCAUCA
B11: chr2:32640116:32640117:+_ENSG00000115760_ENST00000421745|hu_hu|FALSE|FALSE (ssRNA)
RNA: GGGAGUUCUACAGUCCGACGAUCUUCUGAUAUACUUUCACCCUGAGUUCUGCUUAAACCAUCCAGUGACCUGUGAGAAUUACUACUAAUGGGUGAGGUAGCAGGAGAUUUAUAUGUUAAUAAACCUCCAGCUAAUAAACAUGGCAACAGAGGAUUGAGCAUCA
B12: chr7:56126341:56126342:+_ENSG00000146731_ENST00000540286|hu_mus|hu_hu_hu_mus_True|1_78 (ssRNA)
RNA: GGGAGUUCUACAGUCCGACGAUCCAUGUUUCUCCUCUUGGCUCUGCGCAGAGCUACUAUGCCUUCUUUCGCAAGGGCAUCUAAGGAAAAGGGGUCAAUCCCCUUUUGAUUAAUAACGACAAAUCCUUUAUCUGAGUCGCCACACAACAGAGGAUUGAGCAUCA
B13: 154243910_154245291_2018_CDS_ENSG00000109654_ENST00000338700|human|control|control (ssRNA)
RNA: GGGAGUUCUACAGUCCGACGAUCAUGAUUAUGGAAAUCUGUAAUAAUAAUCUCAUUAUUGCUAUUUACAGCUGCAAAAUGGGGACCUGCAAACUGCCUGUCCCCAUUUCCUCGGCUACCAAACCUGGUGACUAUUUUCCCGUUCAACAGAGGAUUGAGCAUCA
B14: chr1:244855233:244855234:+_ENSG00000121644_ENST00000302550|hu_mus|hu_hu_hu_mus_True|38_108 (ssRNA)
RNA: GGGAGUUCUACAGUCCGACGAUCCAUUAAAUGAUAAGCGUUGCCCUUAUACUCUUUCCCCAGUUCUUCUACAAUUUUCUCUAUAUCAUCUUCUAGAAAGUCCGUGCUUCCUAGAACAACAGCUUCUUUAAAUUUAAAUGUUUCCAACAGAGGAUUGAGCAUCA
B15: chr2:73747301:73747302:-_ENSMUSG00000018770_ENSMUST00000018914|mus_mus|FALSE|FALSE (ssRNA)
RNA: GGGAGUUCUACAGUCCGACGAUCAUAACCAAUGAUAAGACUGCCAAAGACUGUUCCAAUACCAGCACCAGAACCAGCAACUCCUACUGUUGCAGCACCUGCACCAAUGAAUUUGGCAGCAGUAUCAAUGUCUCUGCUGAUUACCAACAGAGGAUUGAGCAUCA
B16: chr4:110743517:110743518:+_ENSG00000109534_ENST00000226796|hu_mus|FALSE|FALSE (ssRNA)
RNA: GGGAGUUCUACAGUCCGACGAUCUUUCUCACCAGGAGGACGAGGCAGAAACCUCUGCAGCGGCAGCAGCUUGUAUGGGUCUAUAUAGAACUUCUGUAGCUUUUUAAAGGAAGAUGCCUUCAUGUUUUCUGACAACUUAACUGACAACAGAGGAUUGAGCAUCA
B17: 114133280_114145501_871_3pUTR_ENSMUSG00000033545_ENSMUST00000095176|mouse|control|control (ssRNA)
RNA: GGGAGUUCUACAGUCCGACGAUCAUGCAGCUUUUGUGAUAGAUGCACAGGCAAGGCAGCCUGGCUAUCGUGUCCCCCUGAAGCAGCUCCUCCAGGCAGAUCACACACUCACCCGCAUCUUUAGUCAGCACAUCAUCAUUGUAGCAACAGAGGAUUGAGCAUCA
B18: chr7:151048522:151048523:+_ENSG00000013374_ENST00000566856|hu_mus|hu_hu_hu_mus_True|48_108 (ssRNA)
RNA: GGGAGUUCUACAGUCCGACGAUCCUGCUUCUUAUUUAUUACGAUCUUGAUGUAAUUUUCUUGAAAUCCGAAAGUUUCAGCUAUUUGGGACCUCAGUUCUCUACCAGUGACAUGCAAGCGGGUCUCCAACAAGCUUUUCUUAUCCAACAGAGGAUUGAGCAUCA
B19: chr8:112747817:112747818:+_ENSMUSG00000046441_ENSMUST00000056972|mus_hu|FALSE|FALSE (ssRNA)
RNA: GGGAGUUCUACAGUCCGACGAUCAAACAUGAUCUUUGGUUUAAAGCUGUCCCGUUAUAUUUUUAUAGUUGGAUGGUGUGGUCAGUAAAAGAUUCAUACAACAGCAUACUAGUUUUAUUUGAGCCAUGUAAGAAAAUAGGGUCACAACAGAGGAUUGAGCAUCA
B20: chr11:46405157:46405158:+_ENSG00000110492_ENST00000395566|hu_hu|hu_hu_hu_mus_False|1_28 (ssRNA)
RNA: GGGAGUUCUACAGUCCGACGAUCCCCUCCCCACUUUGGGCACUUGGUGUGGGCGUGAGAGGACAGGCGUGAUUGACAGAGCUGACAGGAAGACAAAAGGCACUGGUGGGUCACAUCUUGGGCCUGUGGGAGAGGAGGCGUGGGCAACAGAGGAUUGAGCAUCA
B21: chr2:216981417:216981418:+_ENSG00000079246_ENST00000392132|hu_hu|hu_hu_hu_mus_True|8_98 (ssRNA)
RNA: GGGAGUUCUACAGUCCGACGAUCCUGAUACUGGUCCCCACCAGAAAGGGCAUUAUCAGUGCCAUCUGUGCCAUAGAGGACUAACGCAAUCUCAUCUUUGCUCUCCGAAAAUACCUGUCGUUGGACAAACAUGGUUAUCACUUUCAACAGAGGAUUGAGCAUCA
B22: chr8:32276666:32276667:-_ENSMUSG00000031578_ENSMUST00000033983|mus_hu|motif|central (ssRNA)
RNA: GGGAGUUCUACAGUCCGACGAUCACGGGGCCAGUAAAUCAGAUUUUCAUCUAUUUGCUCCAGUGCUUUCUCAUAGUUUUUACGGAGCCGGACCCGUUCCCAGAGACGCCGAGGAAAAGCCGCUCGUUCUAUAACCUUCAUAUACAACAGAGGAUUGAGCAUCA

The other results are listed elsewhere or left out.

This assay concerns the target T1, UNK ZnF1-3 (human, UniProt Q9C0B0 31-174).
T1 sequence: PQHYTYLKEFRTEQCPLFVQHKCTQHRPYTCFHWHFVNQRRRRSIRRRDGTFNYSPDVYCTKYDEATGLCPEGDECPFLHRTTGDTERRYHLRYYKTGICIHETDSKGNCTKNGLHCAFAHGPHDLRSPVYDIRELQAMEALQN
The assay can be described thus: nsRBNS (natural sequence RNA bind-n-seq); RBNS binding buffer (assumed for nsRBNS): 25 mM Tris pH 7.5, 150 mM KCl, 3 mM MgCl2, 0.01% Triton X-100, 500 ug/ml BSA, 20 U/ml SUPERase-In, 4 C; UNK is unkempt and MSI1 is Musashi-1; names of the RNAs are library labels; protein concentration not given here; high values mean tight binding.
B1 registered a binding signal of 1.05 enrichment R.

In the case of B2, the binding signal stood at 1.02 enrichment R.

On to B3, for which the binding signal was 0.714 enrichment R.

With B4, the binding signal turned out to be 0.791 enrichment R.

For B5, the binding signal was 1.6 enrichment R.

In the case of B6, the binding signal stood at 1.06 enrichment R.

On to B7, for which the binding signal worked out at 0.76 enrichment R.

In turn, B8 yielded a binding signal of 0.494 enrichment R.

The molecule B9 registered a binding signal of 0.788 enrichment R.

B10 had a binding signal of 1.61 enrichment R.

In the case of B11, the binding signal is 1.12 enrichment R.

As for B12, the binding signal was determined as 0.657 enrichment R.

As for B13, the binding signal was found to be 0.455 enrichment R.

Molecule B14 showed a binding signal of 1.37 enrichment R.

Consider B15, for which the binding signal turned out to be 1.04 enrichment R.

Consider B16, for which the binding signal is 1.19 enrichment R.

Take B17: the binding signal was 1.02 enrichment R.

The molecule B18 gave a binding signal of 0.712 enrichment R.

With B19, the binding signal stood at 1.5 enrichment R.

Turning to B20, the binding signal came to 2.44 enrichment R.

On to B21, for which the binding signal is 0.926 enrichment R.

Take B22: the binding signal worked out at 0.81 enrichment R.

The values are drawn from paper PMC12136788.
